Laboratory results taken from US20060258842A1.
These are yes or no findings as the source states them, for the method shown. Some results given as binding are weak or reduced against the parent protein; the word gives no strength.

Sequences of proteins named here, by UniProt entry; tags and fusion partners are left off. Residues count along the entry.
GST fusion of protective antigen domain 1 (P13423, residues 30-287): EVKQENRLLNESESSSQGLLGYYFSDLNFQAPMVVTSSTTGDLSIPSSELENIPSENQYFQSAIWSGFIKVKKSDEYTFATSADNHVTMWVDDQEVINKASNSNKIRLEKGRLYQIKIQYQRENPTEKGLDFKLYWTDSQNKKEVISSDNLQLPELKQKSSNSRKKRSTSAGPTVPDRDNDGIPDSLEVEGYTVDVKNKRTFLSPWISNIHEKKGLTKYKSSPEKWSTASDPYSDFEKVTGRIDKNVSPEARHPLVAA
GST fusion of protective antigen domains 3 to 4 (P13423, residues 517-764): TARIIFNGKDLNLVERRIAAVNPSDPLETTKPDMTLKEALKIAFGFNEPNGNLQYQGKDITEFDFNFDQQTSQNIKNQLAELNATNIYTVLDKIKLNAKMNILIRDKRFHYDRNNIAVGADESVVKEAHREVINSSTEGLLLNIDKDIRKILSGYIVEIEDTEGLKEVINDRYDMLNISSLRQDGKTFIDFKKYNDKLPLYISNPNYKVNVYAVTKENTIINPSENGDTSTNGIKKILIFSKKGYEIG
GST fusion of protective antigen domain 4 (P13423, residues 625-764): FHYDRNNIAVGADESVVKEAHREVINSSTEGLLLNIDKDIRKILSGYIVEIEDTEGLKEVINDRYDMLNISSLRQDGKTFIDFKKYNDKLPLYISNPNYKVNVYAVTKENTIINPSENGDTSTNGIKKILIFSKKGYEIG

B1: human monoclonal antibody IQNPA-1 (antibody, V domains shown)
VH: QVQLVQSGAEVKKPGASVKVSCKASGYTFTSNAIQWVRQAPGQRLEWVGWINGGDGNTKYSQKFQGRVTISRDISASTAYMELSSLRSEDTAVYYCARHRLQRGGFDPWGQGTLVTVSS
VL: EIVLTQSPGTLSLSPGERATLSCRASQSVSYSSLAWYQQKPGQAPSLLIYGASSRATGIPDRFSGSGSGPDFTLTISRLEPEDFAVYYCQHYGNSPYTFGQGTKLEIKR
B2: human monoclonal antibody IQNPA-2 (antibody, V domains shown)
VH: QVQLVQSGAEVKKPGASVKVSCKASGYTFTSNAIQWVRQAPGQRLEWVGWINGGDGNTKYSQKFQGRVTISRDISASTAYMELSSLRSEDTAVYYCARHRLQRGGFDPWGQGTLVTVSS
VL: EIVLTQSPGTLSLSPGERATLSCRASQSVSYSSLAWYQQKPGQAPSLLIYGASSRATGIPDRFSGSGSGPDFTLTISRLEPEDFAVYYCQHYGNSPYTFGQGTKLEIKR

Columns and labels:
Experiment in all cases: ELISA, plate coated with GST-PA domain protein
[1] = biological target: GST fusion of protective antigen domain 4 (Bacillus anthracis) (UniProt P13423)
[2] = biological target: GST fusion of protective antigen domains 3 to 4 (Bacillus anthracis) (UniProt P13423)
[3] = biological target: GST fusion of protective antigen domain 1 (Bacillus anthracis) (UniProt P13423)

| Binder | binding [1] | binding [2] | binding [3] |
| --- | --- | --- | --- |
| B1 | binds | binds | no binding (tested: starting dilution 1:100 of 0.77 mg/ml) |
| B2 | binds | binds | no binding (tested: starting dilution 1:100 of 0.65 mg/ml) |
